# The list shows a part of the results. At the low end of the ranking the order means little.
# Target: SIX1 homeodomain (reference allele) (UniProt Q15475)
# Assay: universal protein binding microarray
# Settings: Universal all-10-mer PBM (8x60K, AMADID 030236), 300 nM GST-tagged protein, Alexa Fluor 488 anti-GST; buffer, salt, pH and temperature not stated; high values mean tight binding; most listed sequences are background and not binding sites; double strand, one strand shown
row,Sequence,binding signal
1,GCTCGCTA,0.055 E-score
2,ACACTTTG,0.0262 E-score
3,ATATGGCC,0.197 E-score
4,CGGTAGGC,-0.156 E-score
5,AAGCTCTG,-0.228 E-score
6,AGTGCTAT,0.0179 E-score
7,CTCACGTC,-0.0519 E-score
8,GCTTACAC,0.0239 E-score
9,CACCTGGC,-0.0743 E-score
10,CCTTGGTC,-0.0581 E-score
11,GACACATC,-0.07 E-score
12,CACCTCCG,0.268 E-score
13,CAACCTAG,0.114 E-score
14,TCAGCGGA,0.0989 E-score
15,AAGCGATA,0.376 E-score
16,CTGAAAAC,-0.0358 E-score
17,AAATGGGA,-0.0533 E-score
18,AAAGACTC,-0.287 E-score
19,ACTGAGAT,0.124 E-score
20,ATTCCATA,0.037 E-score
21,GCGCGGAC,-0.18 E-score
22,CCCATAAA,-0.14 E-score
23,ACAGCAAC,-0.213 E-score
24,CATTAAAA,-0.0887 E-score
25,CGGCGCAC,-0.148 E-score

row,Sequence,binding signal
1,GTAATCAA,-0.126 E-score
2,AGCTTGAC,-0.243 E-score
3,GACTTAAA,-0.235 E-score
4,CTATCAAC,0.29 E-score
5,CAAATGGG,-0.0851 E-score
6,ACCAGCAG,-0.116 E-score
7,CAGGGTGG,0.0899 E-score
8,AAATCCAC,-0.101 E-score
9,AAGACCTA,-0.173 E-score
10,CGGTGTAA,0.257 E-score
11,AACACCCA,0.13 E-score
12,CTCATAAG,0.126 E-score
13,GCGAGGAA,-0.146 E-score
14,TATCCATA,0.391 E-score
15,AATGCCGA,-0.0344 E-score
16,AGTGCGCG,-0.254 E-score
17,TAGGGCGA,0.0366 E-score
18,GAAAGTTC,-0.368 E-score
19,ACCAATCT,0.103 E-score
20,TTGCTAAA,-0.233 E-score
21,CACTGGCC,-0.0766 E-score
22,CAATGGGA,-0.0446 E-score
23,CGGGATCA,0.417 E-score
24,GTAACATA,0.0437 E-score
25,ATGCCGAA,0.00536 E-score

row,Sequence,binding signal
1,CACTAGGG,0.0663 E-score
2,AACTTGTA,-0.206 E-score
3,GGCAATGA,-0.0784 E-score
4,AATATTCC,0.251 E-score
5,AAATCGCG,-0.139 E-score
6,ACCTCACT,0.0117 E-score
7,GCCGGGAC,-0.129 E-score
8,ACTACTCT,-0.0322 E-score
9,AAGACTAT,-0.0452 E-score
10,ACTGGTGG,-0.0712 E-score
11,CCGCACCG,-0.0552 E-score
12,CCACTCGC,0.00504 E-score
13,ATCGCGCC,0.158 E-score
14,AGTATTTA,-0.033 E-score
15,ACAACTAC,-0.211 E-score
16,CTATGCAG,0.0494 E-score
17,CTGTCGGA,0.0389 E-score
18,GCTCTAAC,-0.0119 E-score
19,CCGGCAAA,-0.141 E-score
20,CCCTAAGA,0.0664 E-score
21,CGTTCTTC,-0.0968 E-score
22,TACTCCGA,0.177 E-score
23,ACGGGGTG,0.146 E-score
24,AGGGGAGG,0.126 E-score
25,ACGTAAGG,-0.138 E-score

row,Sequence,binding signal
1,ACAGGGAA,-0.158 E-score
2,GACCGGCA,-0.152 E-score
3,ATAATAAC,-0.00396 E-score
4,GAGACCCA,0.143 E-score
5,GTTCCACA,0.0269 E-score
6,GCTAGTGA,-0.0241 E-score
7,GTTTATAA,-0.0702 E-score
8,AGCCGCGA,0.11 E-score
9,CCCAAGAG,-0.0251 E-score
10,ACAAAACC,-0.0518 E-score
11,TAGCCTCA,-0.173 E-score
12,TAAGTTAA,-0.0399 E-score
13,CCTCATTA,-0.056 E-score
14,ATGAAGGA,0.0258 E-score
15,ACACCGTC,0.262 E-score
16,AGAGGCAG,-0.18 E-score
17,GACTTGCA,-0.094 E-score
18,CCGATGCA,0.0271 E-score
19,GCAGACAA,-0.0799 E-score
20,CACTTTCG,-0.0427 E-score
21,AGTGACAG,-0.0951 E-score
22,AGCTACAT,0.0767 E-score
23,AGTGCAAT,-0.129 E-score
24,ACCGATGC,0.0323 E-score
25,AACCCTAT,0.185 E-score

row,Sequence,binding signal
1,AACATTGT,-0.0921 E-score
2,CTCAAAGC,-0.117 E-score
3,TCTCACAA,0.0917 E-score
4,TCTCGGCA,-0.105 E-score
5,AATTCAGA,-0.119 E-score
6,GACGAAAA,-0.302 E-score
7,GGCTGACA,0.0873 E-score
8,GGTCCCCA,-0.211 E-score
9,ATAGAAAC,-0.0559 E-score
10,GGGTAGAC,0.0718 E-score
11,GAATATTC,0.106 E-score
12,GACGGCTC,-0.0532 E-score
13,AAAAGAAG,-0.286 E-score
14,AGAATCTG,0.12 E-score
15,ACACCAAG,0.236 E-score
16,ATTCCTGA,0.0326 E-score
17,CTACATCA,-0.116 E-score
18,CGAGCTCG,0.114 E-score
19,CTCCCGTC,0.0843 E-score
20,GTCAGAAA,-0.144 E-score
21,ACGCGCGG,-0.105 E-score
22,CTCCTGAC,0.0254 E-score
23,ACCAGGAA,-0.144 E-score
24,AATGTGAA,-0.141 E-score
25,AGAAGTTA,-0.205 E-score

row,Sequence,binding signal
1,GATGATGC,0.0873 E-score
2,CCCAAAAG,-0.185 E-score
3,ACAACCCT,-0.0766 E-score
4,ACCCGGCG,0.107 E-score
5,CGCCCAGC,-0.0229 E-score
6,CATTTAGC,-0.115 E-score
7,TGGAGACA,0.076 E-score
8,CAAACTCC,-0.193 E-score
9,GCTGCACA,-0.151 E-score
10,AGGTTCGA,-0.0179 E-score
11,ATTAACCA,-0.0164 E-score
12,GATTCCAA,0.0394 E-score
13,AAACCGCT,-0.0955 E-score
14,ATACGTAT,0.421 E-score
15,CCTAACAA,-0.137 E-score
16,CAGATTCA,0.0897 E-score
17,AAGAGGGC,-0.0566 E-score
18,ATCTCCAT,0.238 E-score
19,CGTGCCTC,-0.121 E-score
20,TAAAATAA,-0.0717 E-score
21,GCGGACAC,0.15 E-score
22,GTTGCCTA,-0.15 E-score
23,AGTCTTCC,-0.254 E-score
24,CTAGAGGC,-0.123 E-score
25,GATATAGC,0.368 E-score

row,Sequence,binding signal
1,ACGGCCCC,-0.344 E-score
2,ATACGGGG,0.335 E-score
3,CGTACACC,0.205 E-score
4,CCCAGATA,0.302 E-score
5,GGCATGCC,0.0604 E-score
6,ATAACTAA,0.0576 E-score
7,GGCCAGAA,-0.125 E-score
8,AGGACCAG,-0.188 E-score
9,AATATGGC,0.097 E-score
10,GCAGTGCC,-0.155 E-score
11,CATGGATC,0.307 E-score
12,GCGATCAA,0.18 E-score
13,GCACGTTA,-0.0721 E-score
14,ACCTTCAT,-0.0214 E-score
15,AATGCGGG,0.0957 E-score
16,CGACCAGC,-0.165 E-score
17,CTGTCACC,0.0245 E-score
18,AGGGTGCC,-0.0802 E-score
19,TCTGCTAA,-0.0693 E-score
20,CGCAGCAA,-0.169 E-score
21,ACCTACCT,-0.195 E-score
22,ACGGGCAA,0.0506 E-score

# Reference: PMC10668032
